This is an account of results in the RNAGym collection of RNA variant scans (doi:10.1093/nar/gkz1192).

Read counts are not given, so values of variants with three or more changes are uncertain.

To fix the notation:
B1: CPEB3 Ribozyme (parent)
chain: UAACAGGGGGCCACAGCAGAAGCGUUCACGUCGCAGCCCCUGUCAGAUUCUGGUGAAUCUGCGAAUUCUGCUGUAUAUCUC

Variants of B1 are the subject of the data set. Put plainly: self-cleavage, relative activity (ratio to wild type); higher = more cleavage; in vitro, sequencing. The procedure, abridged:
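After error-prone PCR and barcoding, CPEB3 ribozyme mutant libraries were transcribed with T7 RNA polymerase at 37°C for 5 hours, then given 15 min with DNase I before an EDTA stop, and they cleaved during both steps. Reverse transcription with template switching preceded Illumina sequencing. Relative activity divides a variant's cleaved/total read fraction by the unmutated ribozyme's. At least 5 reads were required per variant, and three batches were averaged.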
In the case of U41A C44A U54C, the self-cleavage was determined as 0.09.

In the case of U41C U60C G61C U80A, the self-cleavage amounted to 0.23. The same measure for U41A A64U U80C: 0.42; for C40U U41C U67C: 0.16; for U41C U60A A65G: 0.12. Consider U41C A65U C71U U78A, for which the self-cleavage amounted to 0.23. Consider C40U A47G G63U U78C, for which the self-cleavage was 0.47.

On to U41C A47G U54A U60C U69G, for which the self-cleavage came to 0.5. The figure for U41A U76C U80A is 0.54. As for U41A U76C U80C, the self-cleavage turned out to be 0.28. The same measure for U41C U49C A57U U72C: 0.25. U41C U51C U67C U76C: the self-cleavage amounted to 0.42. Turning to U41C C44A A57G, the self-cleavage stood at 0.19. For U41A U43C A64G U78C, the self-cleavage came to 0.07.

On to U41C A47G U67C, for which the self-cleavage came to 0.35. As for U41C U43A A45G U72C U80C, the self-cleavage was 0.6.

Regarding U41C U43C U72C A77G, the self-cleavage was found to be 0.28. The figure for U41C U48C A75G is 0.63. The figure for U41C U48C C59A U78A is 0.11; for C40U A47G A64U it is 0.12; for U41C U60A U78C it is 0.6. In the case of U41A A45G U80A, the self-cleavage was 0.21. Take U41C U51A U78C: the self-cleavage amounted to 1.21. The figure for U41A A47U U54A U58A is 0.33; for U41A G42A G63C it is 0.31. As to U41C G46U A77U U78C, the self-cleavage stood at 0.25. The same measure for U41A A65G U80G: 0.21; for C40A C44U A56G U78A: 0.25. The same measure for U41A A56G A65G U72C C81G: 0.16; for U41C C50A A56G: 0.69. The figure for U41A U60C U69G is 0.09. On to U41A U54C A77G, for which the self-cleavage was found to be 0.25. On to U41C U48C U54C A57G A65U C79U, for which the self-cleavage is 0.22. In the case of U41A U49C U69A, the self-cleavage was 0.18.

Take C40U G42A U51C A56G G61A: the self-cleavage worked out at 0.1. The figure for U41A A45G U60G A64C is 0.1; for U41C A75G U76C it is 1.08. The same measure for C40A U49C A65G: 0.11. The same measure for U41C U54A A56U U67C: 0.47; for U41A U48C U60A: 0.3; for U41A U48C U60G: 0.15. For U41C U43C U60C, the self-cleavage was 0.1. The figure for U41A U54C C71G U72C A77U U78C is 0.05; for U41A U51G U78C it is 0.13; for C40U U48A U51A U54C A57G U80A it is 0.

On to U41A U49C U58C C62U G70A, for which the self-cleavage is 0.1. In the case of U41A U54A U74G A75U, the self-cleavage came out at 0.44. The figure for U41C A47G U72C is 1.24; for U41A U43G U67A it is 0.2; for U41A U74A U80C it is 0.18. The figure for U41A U69C C71U is 0.1; for U41A U48C U76A it is 0.08. The same measure for C40G A56G U67C: 0.14; for U41C U54A U74G: 1.35. Consider U41C G70A U78A, for which the self-cleavage is 0.41. The figure for U41A U49C C71G U72G A75C is 0.09; for C40A A56G U69C U74A it is 0.04; for C40U G63U U72G it is 1.12.

As to U41C G42U U43C, the self-cleavage was 0.11. In the case of U41C U49C A56G, the self-cleavage was found to be 1.14. The figure for U41A A64U A77G is 0.11; for C40A U58C A64U A65G it is 0.38; for U41C U48C A65U U78A U80A it is 0.11.

Turning to C40U A45U U74A, the self-cleavage was 0.65. On to U41C C79A U80C, for which the self-cleavage came to 1.17.

As for U41A U43A U69A, the self-cleavage is 0.24. The same measure for U41C C50A C68U: 0.95; for C40A A64G U78C: 0.07; for C40U A65G U72C: 0.36. The same measure for U41C U60C G63U A75G: 0.45; for U41C A45G A64G U67C: 0.38; for U41A A45G C50U U78C: 0.2. The figure for C40U U49A U66C is 0.29; for C40A U41A A45U U72C it is 0.28; for U41C G46U A47G C68A it is 0.21. For U41A A47G U48C U54A, the self-cleavage stood at 0.07. The same measure for U41A U51C U72C: 0.25; for C40U U54G U74A: 0.72.

U41A G53U A57G U60C: the self-cleavage was 0.12. For U41A U67C U80C, the self-cleavage turned out to be 0.18. The same measure for U41A A56G C62U A77U U80C: 0.19; for U41A U43C U54C U80C: 0.19; for U41A A64U U69C: 0.19.

For the variant U41C A45U U49C U78A, the self-cleavage was found to be 0.1.

For the variant U41A U51C A56G U78C, the self-cleavage amounted to 0.17. Regarding U41C A57G U58C U66C U72A, the self-cleavage worked out at 0.2. For U41A G55A U76C, the self-cleavage was determined as 0.06. In the case of U41A U43C U49C A57G U80A, the self-cleavage was 0.06. In the case of U41C A56U U80C, the self-cleavage turned out to be 0.92. The same measure for U41A U54A U69C U76A: 0.11.

Consider C40U A56U A57C, for which the self-cleavage amounted to 0.16.

Consider U41C A65G U69C U80C, for which the self-cleavage is 0.27. Consider U41C U66A U78C, for which the self-cleavage stood at 0.42.

As for U41A A45G U49A, the self-cleavage was determined as 0.53. The figure for U41C A56G A64G is 0.52; for C40A U41A A57G A65U U74C it is 0.22. The same measure for U41C A64G U72C A75U: 0.73.

With C40A U43A U60A U69C, the self-cleavage amounted to 0.11. For U41A A56U U76A, the self-cleavage was 0.08. The same measure for U41C G42C U74C A75U U76C: 0.47.

In the case of C40U A47G C59U, the self-cleavage amounted to 0.19. On to C40U U66C U67A C68U U76C U80C, for which the self-cleavage turned out to be 0.1. The same measure for U41A U51C U78A: 0.17. The figure for U41A A45G U69A is 0.39; for C40U U41C U80C it is 0.51; for U41C U43C A47U U54C it is 0.16.

Turning to U41A U54C A56G U72C A77G U80C, the self-cleavage is 0.12. The figure for C40U U54C A65U U72C is 0.19; for U41A U49C U76A it is 0.45. The figure for C40A U58C A64C is 0.04; for U41A U51C G61C A77U it is 0.08; for U41C U43A G63U it is 0.8. As to U41A U51A U54A U60C, the self-cleavage came out at 0.08. U41C U51C U80C: the self-cleavage came to 1.05. The same measure for U41C U54C G61A U66C: 0.28. In the case of U41A U43C U69C, the self-cleavage came out at 0.13. The same measure for U41C U54G A65G: 0.31. For U41C G52U U58C A65G U72C, the self-cleavage is 0.27.

U41C A45G A57G U72C A75G: the self-cleavage was determined as 0.51.

For the variant U41A U48C A56G, the self-cleavage stood at 0.38. As for U41C A57U U66C U76C, the self-cleavage came out at 0.43. The figure for U41A U51C U54A U74C is 0.4; for U41C G55A U58C it is 0.27. The figure for U41C A47U A57G A65U is 0.11; for U41C A56C U58C U67A it is 0.24; for U41C A45U C62A U80C it is 0.2. The figure for C40U A65G A75G is 0.13. Turning to U41C A64G A77G, the self-cleavage was 0.69. For the variant C40A A57U U60C U66A A75C, the self-cleavage stood at 0.14. Consider C40G U54C A56G A65U, for which the self-cleavage was found to be 0.08. For U41A A45U U48C, the self-cleavage is 0.22.

In the case of U41A A47G A64G U76C, the self-cleavage stood at 0.11.

Take U41C U43A A47G U51A U72C: the self-cleavage was found to be 0.45. The same measure for U41C G70U U78C U80A: 0.48.

Take U41C G46U U78C: the self-cleavage turned out to be 0.3. On to U41A A75G U80C, for which the self-cleavage was 0.15.

Turning to C40A U51A U69G, the self-cleavage amounted to 0.64.

For the variant C40U A65G U69A U72C, the self-cleavage worked out at 0.13.

In the case of U41C A47U A57G, the self-cleavage was determined as 0.32. In the case of U41A A56G A64U A77U, the self-cleavage is 0.31. The figure for U41C A45G U51A is 0.7; for U41C U60C U69A U72A U80C it is 0.25; for U41C U54G U72C it is 1.13. The figure for U41A A47G U66C U80A is 0.07; for U41C A45G U48C it is 0.36. The figure for U41A U51A U80A is 0.31. Consider U41C U54G A57G U80A, for which the self-cleavage came to 0.65. Turning to C40A U41C U72G, the self-cleavage stood at 0.17. The figure for U41C A64G U80G is 1.05. The same measure for U41C U58C U69A A77C: 0.28; for U41A U43C U74A: 0.28. The figure for C40G G55A A64G U69C U72C is 0.18; for U41A A56U U69C it is 0.1; for U41C A56U A57G U72C it is 0.53. For the variant U41A A45U U69C, the self-cleavage came out at 0.12. For the variant U41C U43A U66A U78G, the self-cleavage was 0.24. The figure for C40U U74C U80C is 0.75. The figure for U41C U51A G63A is 0.89. The figure for C40A U60C U69A is 0.16; for U41C A47G U51A it is 1.13.

For U41C U54A U72A U76A, the self-cleavage came out at 0.77.

Turning to U41A U72C U74A, the self-cleavage turned out to be 0.27. The same measure for U41C A64C U66C C71U: 0.54; for U41A U72A U76C: 0.13; for U41A U54G U80C: 0.23. The same measure for C40U G55A U66C U72C U74A: 0.11; for U41C U43A G46U A56G: 0.16.
